Experimental findings from the supplement of paper PMC11876631 are described below.

± gives the standard deviation of the averaged measurements. Laboratory Escherichia coli strains with one amino-acid change in an essential protein, pooled on minimal glucose agar with carbenicillin or gentamicin at twice the control MIC (plus kanamycin and chloramphenicol for the plasmids), 48 h. Fold change of barcode share against drug-free plates; higher = less susceptible. Active = above 20 in both replicates (the paper's putatively resistant). '<' = one read or none on drug, '>' = one read or none on a drug-free plate. Shares are relative, so most strains fall below 1 when a few take over. Listed are strains with at least 15 reads on both drug-free plates, and hits; most hits rest on fewer reference reads. Replicate rank correlation about 0.5. Edits are read from barcodes.

First the molecules themselves.
B1: nadD L129A (protein)
chain: MKSLQALFGGTFDPVHYGHLKPVETLANLIGLTRVTIIPNNVPPHRPQPEANSVQRKHMLELAIADKPLFTLDERELKRNAPSYTAQTLKEWRQEQGPDVPLAFIIGQDSLLTFPTWYEYETILDNAHAIVCRRPGYPLEMAQPQYQQWLEDHLTHNPEDLHLQPAGKIYLAETPWFNISATIIRERLQNGESCEDLLPEPVLTYINQQGLYR
B2: nadD L198P (protein)
chain: MKSLQALFGGTFDPVHYGHLKPVETLANLIGLTRVTIIPNNVPPHRPQPEANSVQRKHMLELAIADKPLFTLDERELKRNAPSYTAQTLKEWRQEQGPDVPLAFIIGQDSLLTFPTWYEYETILDNAHLIVCRRPGYPLEMAQPQYQQWLEDHLTHNPEDLHLQPAGKIYLAETPWFNISATIIRERLQNGESCEDLPPEPVLTYINQQGLYR
B3: nadD L198A (protein)
chain: MKSLQALFGGTFDPVHYGHLKPVETLANLIGLTRVTIIPNNVPPHRPQPEANSVQRKHMLELAIADKPLFTLDERELKRNAPSYTAQTLKEWRQEQGPDVPLAFIIGQDSLLTFPTWYEYETILDNAHLIVCRRPGYPLEMAQPQYQQWLEDHLTHNPEDLHLQPAGKIYLAETPWFNISATIIRERLQNGESCEDLAPEPVLTYINQQGLYR
B4: nadD L129D (protein)
chain: MKSLQALFGGTFDPVHYGHLKPVETLANLIGLTRVTIIPNNVPPHRPQPEANSVQRKHMLELAIADKPLFTLDERELKRNAPSYTAQTLKEWRQEQGPDVPLAFIIGQDSLLTFPTWYEYETILDNAHDIVCRRPGYPLEMAQPQYQQWLEDHLTHNPEDLHLQPAGKIYLAETPWFNISATIIRERLQNGESCEDLLPEPVLTYINQQGLYR
B5: nadD I130P (protein)
chain: MKSLQALFGGTFDPVHYGHLKPVETLANLIGLTRVTIIPNNVPPHRPQPEANSVQRKHMLELAIADKPLFTLDERELKRNAPSYTAQTLKEWRQEQGPDVPLAFIIGQDSLLTFPTWYEYETILDNAHLPVCRRPGYPLEMAQPQYQQWLEDHLTHNPEDLHLQPAGKIYLAETPWFNISATIIRERLQNGESCEDLLPEPVLTYINQQGLYR
B6: nadD V131P (protein)
chain: MKSLQALFGGTFDPVHYGHLKPVETLANLIGLTRVTIIPNNVPPHRPQPEANSVQRKHMLELAIADKPLFTLDERELKRNAPSYTAQTLKEWRQEQGPDVPLAFIIGQDSLLTFPTWYEYETILDNAHLIPCRRPGYPLEMAQPQYQQWLEDHLTHNPEDLHLQPAGKIYLAETPWFNISATIIRERLQNGESCEDLLPEPVLTYINQQGLYR
B7: nadD I130A (protein)
chain: MKSLQALFGGTFDPVHYGHLKPVETLANLIGLTRVTIIPNNVPPHRPQPEANSVQRKHMLELAIADKPLFTLDERELKRNAPSYTAQTLKEWRQEQGPDVPLAFIIGQDSLLTFPTWYEYETILDNAHLAVCRRPGYPLEMAQPQYQQWLEDHLTHNPEDLHLQPAGKIYLAETPWFNISATIIRERLQNGESCEDLLPEPVLTYINQQGLYR
B8: nadD L198Q (protein)
chain: MKSLQALFGGTFDPVHYGHLKPVETLANLIGLTRVTIIPNNVPPHRPQPEANSVQRKHMLELAIADKPLFTLDERELKRNAPSYTAQTLKEWRQEQGPDVPLAFIIGQDSLLTFPTWYEYETILDNAHLIVCRRPGYPLEMAQPQYQQWLEDHLTHNPEDLHLQPAGKIYLAETPWFNISATIIRERLQNGESCEDLQPEPVLTYINQQGLYR
B9: nadD V131Q (protein)
chain: MKSLQALFGGTFDPVHYGHLKPVETLANLIGLTRVTIIPNNVPPHRPQPEANSVQRKHMLELAIADKPLFTLDERELKRNAPSYTAQTLKEWRQEQGPDVPLAFIIGQDSLLTFPTWYEYETILDNAHLIQCRRPGYPLEMAQPQYQQWLEDHLTHNPEDLHLQPAGKIYLAETPWFNISATIIRERLQNGESCEDLLPEPVLTYINQQGLYR
B10: nadD L129Q (protein)
chain: MKSLQALFGGTFDPVHYGHLKPVETLANLIGLTRVTIIPNNVPPHRPQPEANSVQRKHMLELAIADKPLFTLDERELKRNAPSYTAQTLKEWRQEQGPDVPLAFIIGQDSLLTFPTWYEYETILDNAHQIVCRRPGYPLEMAQPQYQQWLEDHLTHNPEDLHLQPAGKIYLAETPWFNISATIIRERLQNGESCEDLLPEPVLTYINQQGLYR
B11: nadD I130Q (protein)
chain: MKSLQALFGGTFDPVHYGHLKPVETLANLIGLTRVTIIPNNVPPHRPQPEANSVQRKHMLELAIADKPLFTLDERELKRNAPSYTAQTLKEWRQEQGPDVPLAFIIGQDSLLTFPTWYEYETILDNAHLQVCRRPGYPLEMAQPQYQQWLEDHLTHNPEDLHLQPAGKIYLAETPWFNISATIIRERLQNGESCEDLLPEPVLTYINQQGLYR
B12: nadD V131W (protein)
chain: MKSLQALFGGTFDPVHYGHLKPVETLANLIGLTRVTIIPNNVPPHRPQPEANSVQRKHMLELAIADKPLFTLDERELKRNAPSYTAQTLKEWRQEQGPDVPLAFIIGQDSLLTFPTWYEYETILDNAHLIWCRRPGYPLEMAQPQYQQWLEDHLTHNPEDLHLQPAGKIYLAETPWFNISATIIRERLQNGESCEDLLPEPVLTYINQQGLYR
B13: nadD I130W (protein)
chain: MKSLQALFGGTFDPVHYGHLKPVETLANLIGLTRVTIIPNNVPPHRPQPEANSVQRKHMLELAIADKPLFTLDERELKRNAPSYTAQTLKEWRQEQGPDVPLAFIIGQDSLLTFPTWYEYETILDNAHLWVCRRPGYPLEMAQPQYQQWLEDHLTHNPEDLHLQPAGKIYLAETPWFNISATIIRERLQNGESCEDLLPEPVLTYINQQGLYR
B14: nadD V131D (protein)
chain: MKSLQALFGGTFDPVHYGHLKPVETLANLIGLTRVTIIPNNVPPHRPQPEANSVQRKHMLELAIADKPLFTLDERELKRNAPSYTAQTLKEWRQEQGPDVPLAFIIGQDSLLTFPTWYEYETILDNAHLIDCRRPGYPLEMAQPQYQQWLEDHLTHNPEDLHLQPAGKIYLAETPWFNISATIIRERLQNGESCEDLLPEPVLTYINQQGLYR
B15: nadD V131A (protein)
chain: MKSLQALFGGTFDPVHYGHLKPVETLANLIGLTRVTIIPNNVPPHRPQPEANSVQRKHMLELAIADKPLFTLDERELKRNAPSYTAQTLKEWRQEQGPDVPLAFIIGQDSLLTFPTWYEYETILDNAHLIACRRPGYPLEMAQPQYQQWLEDHLTHNPEDLHLQPAGKIYLAETPWFNISATIIRERLQNGESCEDLLPEPVLTYINQQGLYR
B16: nadD L198D (protein)
chain: MKSLQALFGGTFDPVHYGHLKPVETLANLIGLTRVTIIPNNVPPHRPQPEANSVQRKHMLELAIADKPLFTLDERELKRNAPSYTAQTLKEWRQEQGPDVPLAFIIGQDSLLTFPTWYEYETILDNAHLIVCRRPGYPLEMAQPQYQQWLEDHLTHNPEDLHLQPAGKIYLAETPWFNISATIIRERLQNGESCEDLDPEPVLTYINQQGLYR
B17: nadD L129P (protein)
chain: MKSLQALFGGTFDPVHYGHLKPVETLANLIGLTRVTIIPNNVPPHRPQPEANSVQRKHMLELAIADKPLFTLDERELKRNAPSYTAQTLKEWRQEQGPDVPLAFIIGQDSLLTFPTWYEYETILDNAHPIVCRRPGYPLEMAQPQYQQWLEDHLTHNPEDLHLQPAGKIYLAETPWFNISATIIRERLQNGESCEDLLPEPVLTYINQQGLYR
B18: asnS L383W (protein)
chain: MSVVPVADVLQGRVAVDSEVTVRGWVRTRRDSKAGISFLAVYDGSCFDPVQAVINNSLPNYNEDVLRLTTGCSVIVTGKVVASPGQGQQFEIQASKVEVAGWVEDPDTYPMAAKRHSIEYLREVAHLRPRTNLIGAVARVRHTLAQALHRFFNEQGFFWVSTPLITASDTEGAGEMFRVSTLDLENLPRNDQGKVDFDKDFFGKESFLTVSGQLNGETYACALSKIYTFGPTFRAENSNTSRHLAEFWMLEPEVAFANLNDIAGLAEAMLKYVFKAVLEERADDMKFFAERVDKDAVSRLERFIEADFAQVDYTDAVTILENCGRKFENPVYWGVDLSSEHERYLAEEHFKAPVVVKNYPKDIKAFYMRLNEDGKTVAAMDVWAPGIGEIIGGSQREERLDVLDERMLEMGLNKEDYWWYRDLRRYGTVPHSGFGLGFERLIAYVTGVQNVRDVIPFPRTPRNASF

The first data set concerns the target Escherichia coli (laboratory strain). Nature of the data set: barcode share on antibiotic plates over drug-free plates; higher = less susceptible. Conditions: antibiotic: carbenicillin; 2× MIC (3.1 µg/mL). Here is the method: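 A pool of E. coli strains, each edited to carry one amino-acid change in an essential protein, was grown for 48 h on minimal glucose agar with or without antibiotic; strain barcodes were sequenced; mean of two replicates.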
For B1, the “fold change of barcode share” value is 0.313 ± 0.15. As for B2, the “fold change of barcode share” value stood at 0.463 ± 0.06. B3: the “fold change of barcode share” value stood at 0.328 ± 0.15. Same read-out and setting: in the case of B4 it was 0.728 ± 0.071. On to B5, for which the “fold change of barcode share” value is 0.309 ± 0.081.

On to B6, for which the “fold change of barcode share” value worked out at 0.333 ± 0.0097. On the same count and under the same terms, for B7 the value was 0.3 ± 0.016; for B8, 0.469 ± 0.0074; for B9, 0.424 ± 0.27. Regarding B10, the “fold change of barcode share” value came out at 0.373 ± 0.21. The same measure, in the same setting: for B11 the value was 0.344 ± 0.055; for B12, 0.345 ± 0.039; for B13, 0.313 ± 0.021. Take B14: the “fold change of barcode share” value came to 0.382 ± 0.042. B15: the “fold change of barcode share” value is 0.283 ± 0.071.

Turning to B16, the “fold change of barcode share” value worked out at 0.538 ± 0.19. B17: the “fold change of barcode share” value stood at 0.289 ± 0.15.

As to B18, the “fold change of barcode share” value was 0.37 ± 0.073.

The same data set, now with this note: antibiotic: gentamicin; 2× MIC (MIC 0.45 µg/mL).
Turning to B1, the “fold change of barcode share” value is 0.00663 ± 0.003. As for B2, the “fold change of barcode share” value was 0.664 ± 0.56. In the case of B3, the “fold change of barcode share” value amounted to 0.105 ± 0.14.

On to B5, for which the “fold change of barcode share” value came out at 0.0038 ± 0.00072. Turning to B6, the “fold change of barcode share” value turned out to be 0.0138 ± 0.013. On to B7, for which the “fold change of barcode share” value is under 0.00394. Turning to B8, the “fold change of barcode share” value was found to be 0.00659 ± 0.0057. As to B9, the “fold change of barcode share” value was 0.00979 ± 0.0037. In the case of B10, the “fold change of barcode share” value was under 0.0115. Consider B11, for which the “fold change of barcode share” value was under 0.00233. Same read-out and setting: in the case of B12 it was 0.0093 ± 0.0073. For the protein B13, the “fold change of barcode share” value was under 0.0044. Regarding B14, the “fold change of barcode share” value is under 0.00439.

With B15, the “fold change of barcode share” value is 0.00808 ± 0.0072. In the case of B16, the “fold change of barcode share” value is 0.0151 ± 0.002. With B17, the “fold change of barcode share” value is under 0.00701. On to B18, for which the “fold change of barcode share” value amounted to 0.00251 ± 0.0023.
